# Test results from PubChem BioAssay (NCATS).
# This list was built around the results that the source calls inconclusive (neither active nor inactive); the mix of calls is not that of the screen. Potencies beside an inconclusive call are fits to weak or partial responses and may not hold up. Activity calls are given as the source filed them. The call rests on the fitted dose curve; in most records, active means well fitted inhibition curve with a large enough effect; inconclusive means small, poorly fitted or top-dose-only effect; inactive means no such curve, though single readings can be large or run the other way.
# Test system: not listed separately
# Experiment: qHTS to identify inhibitors of the type 1 interferon - major histocompatibility complex class I in skeletal muscle: primary screen against the NCATS Mechanism Interrogation Plate v5.0 (MIPE) Libary (AID 1347411); further: nearly all actives have a fitted effect of over 65% in size;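 on activity change, negative = inhibition: plate controls were vehicle for no effect and reference inhibitor for full effect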
# Settings: iHSKM cells + IFN-b, HiBiT-tagged MHC-I luminescence, 24 h; activity change, negative = inhibition: at 45.8 µM (top of the series)
# Method in brief: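 Immortalized human myoblasts (C25cl48) with HiBit knocked into endogenous HLA-B*08:01 were stimulated with 4 ng/ml IFN-beta and given compounds in 11-point 1:3 titration from 46 uM. After 24 h at 37 C, lytic HiBiT luminescence was read.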
# Potency means the concentration at half of the fitted maximal effect; tags describe the fitted curve by direction and shape.
SMILES,"activity change, negative = inhibition",Potency
O=c1oc2cc(O)ccc2s1,inactive: 18.1%,
C#C[C@]1(O)CC[C@H]2[C@@H]3CCc4cc(O)ccc4[C@H]3CC[C@@]21C,,"inconclusive: 33 µM [inhibitor, partial curve, poor fit]"
CC(C(=O)O)c1ccc(-c2ccccc2)c(F)c1 (configuration not stated),,"inconclusive: 37 µM [inhibitor, single point]"
CC(=O)Oc1ccccc1C(=O)Nc1ncc([N+](=O)[O-])s1,,active: 23.4 µM
CCN1CCC(n2cc(CNc3cc(Cl)c4ncc(C#N)c(Nc5ccc(F)c(Cl)c5)c4c3)nn2)CC1,,"inconclusive: 18.6 µM [inhibitor, single point]"
NNc1nncc2ccccc12,inconclusive: -32.6% [inhibitor],
Oc1ccc(C2=Cc3ccc(O)cc3OC2)cc1,,"inconclusive: 11.7 µM [inhibitor, partial curve]"
O=C(Nc1ccc(OC(F)(F)F)cc1)c1sccc1NCc1ccnc2ccccc12,inactive: -14.3%,
Nc1ccccc1NC(=O)c1ccc(CNC(=O)OCc2cccnc2)cc1,,"inconclusive: 5.23 µM [inhibitor, partial curve]"
O=C(Nc1ccccc1-c1cn2c(CN3CCNCC3)csc2n1)c1cnc2ccccc2n1,,active: 14.7 µM
Oc1ccc(C2CCN(c3ccnc4ccccc34)CC2)cc1O,,"inconclusive: 2.62 µM [inhibitor, full curve, poor fit]"
COc1cc2nc(-c3ccc(N4CCN(C)CC4)cc3)nc(NCCN3CCOCC3)c2cc1OC,,"inconclusive: 41.5 µM [inhibitor, partial curve, poor fit]"
O=C(O)c1ccccc1C(=O)Nc1ccc(-c2ccccc2)cc1,,active: 29.4 µM
CC(C)c1ccc2oc3nc(N)c(C(=O)O)cc3c(=O)c2c1,,"inconclusive: 29.4 µM [inhibitor, partial curve, poor fit]"
Clc1ccc(C(Cn2ccnc2)OCc2ccc(Sc3ccccc3)cc2)c(Cl)c1 (configuration not stated),,"inconclusive: 20.8 µM [inhibitor, partial curve, poor fit]"
CCCCN(CCCC)CCC(O)c1cc2c(Cl)cc(Cl)cc2c2cc(C(F)(F)F)ccc12 (configuration not stated),inactive: 10.6%,
O=C(CCN1CCN(C(=O)OCc2cc(Cl)cc(Cl)c2)CC1)c1ccc2[nH]c(=O)oc2c1,inactive: -0.0304%,
CC(=O)Nc1ccc([C@H](C)C(=O)Nc2ncc(C(C)C)s2)cc1,,active: 5.87 µM
Cn1ccc2cc3c(cc21)CCN3C(=O)Nc1cccnc1,inactive: -18.1%,
CO[C@H]1C(=O)[C@]2(C)[C@@H](OC)C[C@H]3OC[C@@]3(OC(C)=O)[C@H]2[C@H](OC(=O)c2ccccc2)[C@]2(O)C[C@H](OC(=O)[C@H](O)[C@@H](NC(=O)OC(C)(C)C)c3ccccc3)C(C)=C1C2(C)C,,"inconclusive: 0.0033 µM [inhibitor, full curve, poor fit]"
C=CC(=O)Nc1cccc(Sc2nc(Nc3ccc(N4CCN(C)CC4)cc3)ncc2Cl)c1,,active: 13.1 µM
CCN1/C(=C/C(C)=O)Sc2ccc(OC)cc21,inactive: -8.57%,
O=C1c2ccccc2-[n+]2ccc3c([nH]c4ccccc43)c21,,"inconclusive: 1.86 µM [inhibitor, full curve, poor fit]"
C=C(c1ccc(C(=O)O)cc1)c1cc2c(cc1C)C(C)(C)CCC2(C)C,,"inconclusive: 29.4 µM [inhibitor, partial curve]"
COc1ccc(-c2cc(=O)c3c(O)cc(O)cc3o2)cc1O,,"inconclusive: 11.7 µM [inhibitor, partial curve]"
Nc1ccc(-c2ccc3ncc4ccc(=O)n(-c5cccc(C(F)(F)F)c5)c4c3c2)cn1,,"inconclusive: 0.0829 µM [inhibitor, full curve]"
Cc1ccnc(NS(=O)(=O)c2ccc(NC(=O)Nc3ccc(S(=O)(=O)Nc4nccc(C)n4)cc3)cc2)n1,inactive: -2.17%,
Cc1ccc(-n2nc(C(C)(C)C)cc2NC(=O)Nc2ccc(OCCN3CCOCC3)c3ccccc23)cc1,inactive: 3.93%,
O=c1cc(CN2CCOCC2)occ1OCCCCCSc1ccnc2cc(C(F)(F)F)ccc12,,"inconclusive: 14.7 µM [inhibitor, partial curve]"

# Biological target: Protein phosphatase 1D (Homo sapiens) (UniProt O15297)
# Experiment: RapidFire Mass Spectrometry qHTS Assay for Modulators of WT P53-Induced Phosphatase 1 (WIP1) (AID 1347424);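 further: amount of dephosphorylated VEPPL-S-QETFS peptide product formed by WIP1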;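 on activity change, negative = inhibition: plate controls were DMSO wells for no effect and GSK830371 inhibitor control at 10 µM for full effect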
# Settings: WIP1 dephosphorylation of phosphopeptide, RapidFire MS; series mostly up to 63 µM; activity change, negative = inhibition: at the top concentration
# Method in brief: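 10 nM WIP1 + cpd, 1 h RT; + 2 uM VEPPL-pS-QETFS, 5 min RT; stop 0.5% formic acid; labelled product standard 1 uM; RapidFire MS. Buffer 50 mM Tris pH 7.5, 30 mM MgCl2, 1 mM TCEP.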
# UniProt O15297, sequence (O15297 whole entry, looked up): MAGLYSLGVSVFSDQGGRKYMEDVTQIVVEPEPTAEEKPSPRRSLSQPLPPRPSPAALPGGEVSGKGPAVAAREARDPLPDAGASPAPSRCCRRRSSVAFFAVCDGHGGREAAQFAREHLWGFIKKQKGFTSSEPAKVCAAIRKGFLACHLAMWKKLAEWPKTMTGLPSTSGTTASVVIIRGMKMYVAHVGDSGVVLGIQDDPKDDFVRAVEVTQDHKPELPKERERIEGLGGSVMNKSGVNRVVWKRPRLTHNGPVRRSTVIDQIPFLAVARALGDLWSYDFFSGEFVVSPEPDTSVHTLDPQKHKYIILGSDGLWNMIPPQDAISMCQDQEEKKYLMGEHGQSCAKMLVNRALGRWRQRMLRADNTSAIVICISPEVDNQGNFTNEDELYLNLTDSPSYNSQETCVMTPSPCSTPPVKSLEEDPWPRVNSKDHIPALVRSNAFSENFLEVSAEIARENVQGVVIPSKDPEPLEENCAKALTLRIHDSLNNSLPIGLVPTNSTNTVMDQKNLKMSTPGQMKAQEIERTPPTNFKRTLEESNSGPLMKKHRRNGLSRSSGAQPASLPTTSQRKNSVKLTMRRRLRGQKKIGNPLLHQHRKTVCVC
SMILES,Potency,"activity change, negative = inhibition"
Nc1c(CC(=O)O)cccc1C(=O)c1ccc(Br)cc1,"inconclusive: 39.8 µM [inhibitor, partial curve, poor fit]",
CC(=O)Oc1ccccc1C(=O)Nc1ncc([N+](=O)[O-])s1,"inconclusive: 31.6 µM [inhibitor, partial curve, poor fit]",
CN(C)[C@@H]1C(=O)C(C(=O)NCN2CCCC2)=C(O)[C@@]2(O)C(=O)C3=C(O)c4c(O)cccc4[C@@](C)(O)C3C[C@@H]12 (some centres not stated),"inconclusive: 28.2 µM [inhibitor, partial curve]",
CCOC(=O)N1CCC(n2c(=O)[nH]c3cc(Cl)ccc32)CC1,,inactive: 21.1%
Cc1cc(O)c2ccccc2c1O,"inconclusive: 25.1 µM [inhibitor, partial curve, poor fit]",
NC(=O)N/N=C/c1ccc([N+](=O)[O-])o1,"inconclusive: 28.2 µM [inhibitor, partial curve, poor fit]",
CCN1/C(=C/C=C/c2sc3ccccc3[n+]2CC)Sc2ccccc21,"inconclusive: 0.891 µM [inhibitor, full curve, poor fit]",
OC[C@]1(O)OC[C@@H](O)[C@H](O)[C@@H]1O,,inactive: 4.28%
C=Cc1c(C)c2cc3[nH]c(cc4nc(cc5nc(cc1[nH]2)C(C)=C5CCC(=O)O)C(CCC(=O)O)=C4C)c(C)c3C=C,"inconclusive: 0.251 µM [inhibitor, full curve, poor fit]",
CNC(=O)Oc1ccc2c(c1)[C@]1(C)CCN(C)[C@@H]1N2C,,inactive: 9.09%
O=C(O)c1cccnc1Nc1cccc(C(F)(F)F)c1,"inconclusive: 25.1 µM [inhibitor, partial curve]",
C=C(c1ccc(C(=O)O)cc1)c1cc2c(cc1C)C(C)(C)CCC2(C)C,active: 4.47 µM,
Cc1ccc(-n2nc(C(C)(C)C)cc2NC(=O)Nc2ccc(OCCN3CCOCC3)c3ccccc23)cc1,"inconclusive: 25.1 µM [inhibitor, single point]",
